Measurements: the supplement of paper PMC8285479
Counter-ions that a name gives are not always drawn. ± gives the standard deviation of the averaged measurements. Whole data set: some 1,900 compounds, median “normalised cell viability (NPI; 0 = phenylarsine oxide control, 1 = DMSO control)” near 1, cut for the lowest 2% near 0.039. The list shows a part of the results.

Test system: NCI-H1944
Assay: normalised cell viability (NPI; 0 = phenylarsine oxide control, 1 = DMSO control) (fraction of DMSO control); NCI-H1944 is a non-small cell lung cancer line; higher = more viable cells (less compound toxicity)
Details: 6 days
[1] = glucocorticoid arm: hydrocortisone 2.75 uM co-treatment, compound 1 µM
[2] = glucocorticoid arm: hydrocortisone 2.75 uM co-treatment, compound 5 µM
[3] = glucocorticoid arm: hydrocortisone 2.75 uM pre-treated 2 days and continued, compound 1 µM
[4] = glucocorticoid arm: hydrocortisone 2.75 uM pre-treated 2 days and continued, compound 5 µM
[5] = glucocorticoid arm: vehicle, compound 1 µM
[6] = glucocorticoid arm: vehicle, compound 5 µM
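Note: CTB read-out in 384-well plates, mean of triplicate wells, normalised per plate against 1 µM phenylarsine oxide and 0.1% DMSO, compounds added 24 h after seeding.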

SMILES	normalised cell viability [1]	normalised cell viability [2]	normalised cell viability [3]	normalised cell viability [4]	normalised cell viability [5]	normalised cell viability [6]
NS(=O)(=O)c1cc2c(cc1Cl)NC(C1CC3C=CC1C3)NS2(=O)=O (centres undefined) [Cyclothiazide]	1.01 ± 0.01	0.981 ± 0.0089	1.02 ± 0.023	0.992 ± 0.029	0.998 ± 0.011	0.995 ± 0.0017
S=C(S)N1CCCC1 [Ammonium pyrrolidinedithiocarbamate]	1 ± 0.015	0.994 ± 0.024	1.01 ± 0.018	1.004 ± 0.01	1.002 ± 0.0076	0.416 ± 0.095
CSC(=N)NCCC[C@H](N)C(=O)O [S-Methyl-L-thiocitrulline acetate]	1.003 ± 0.0058	0.984 ± 0.028	1.01 ± 0.01	0.989 ± 0.018	0.9847 ± 0.0051	0.994 ± 0.014
COc1cccc2c1C(=O)c1c(O)c3c(c(O)c1C2=O)C[C@@](O)(C(C)=O)C[C@@H]3O[C@H]1C[C@H](N)[C@H](O)[C@H](C)O1 [Daunorubicin hydrochloride; Daunorubicin HCl]	0.0398 ± 0.0066	1.05 ± 0.011	0.587 ± 0.027	1.013 ± 0.0058	0.0031 ± 0.0017	1.007 ± 0.0058
CNC(=O)c1cc(Oc2ccc(NC(=O)Nc3ccc(Cl)c(C(F)(F)F)c3)cc2)ccn1 [Sorafenib tosylate; Sorafenib; Sorafenib Tosylate]	1 ± 0.018	1.08 ± 0.029	1.01	1.03 ± 0.011	1.003 ± 0.0058	1.01
CNC(=O)c1cc(Oc2ccc(NC(=O)Nc3ccc(Cl)c(C(F)(F)F)c3)cc2)ccn1 [Sorafenib]	0.9767 ± 0.0085	0.522 ± 0.011	0.987 ± 0.012	0.695 ± 0.036	1.002 ± 0.0068	0.787 ± 0.018
CNC(=O)c1cc(Oc2ccc(NC(=O)Nc3ccc(Cl)c(C(F)(F)F)c3)cc2)ccn1 [Sorafenib (Nexavar)]	0.993 ± 0.004	1.08 ± 0.011	0.995 ± 0.019	1.07 ± 0.025	0.9967 ± 0.0031	1.01 ± 0.015
O=C(Nc1cccc(C(=O)Nc2ccc(S(=O)(=O)O)c3cc(S(=O)(=O)O)cc(S(=O)(=O)O)c23)c1)Nc1cccc(C(=O)Nc2ccc(S(=O)(=O)O)c3cc(S(=O)(=O)O)cc(S(=O)(=O)O)c23)c1	1.007 ± 0.0058	1.02 ± 0.021	1.003 ± 0.0063	1.07 ± 0.084	1.01	1.01 ± 0.017
Ic1ccc(N2CCN(Cc3c[nH]c4ncccc34)CC2)cc1 [L-750,667 trihydrochloride]	0.969 ± 0.003	0.883 ± 0.014	0.99 ± 0.0044	0.999 ± 0.087	0.988 ± 0.011	0.998 ± 0.019
Nc1ncnc2c1nc(Br)n2C1OC2COP(=O)(O)O[C@@H]2C1O (some centres undefined) [8-Bromo-cAMP sodium]	0.9863 ± 0.004	0.901 ± 0.017	0.983 ± 0.001	0.96 ± 0.016	0.9617 ± 0.0067	0.9647 ± 0.0093
Cc1ncc(-c2ccnc(Nc3ccc(S(C)(=O)=O)cc3)n2)n1C(C)C	0.584 ± 0.057	0.062 ± 0.0037	0.705 ± 0.061	0.319 ± 0.083	0.191 ± 0.045	0.0177 ± 0.0014
CC(C)NC[C@@H](O)COc1ccc(CC(N)=O)cc1 [R(+)-Atenolol]	0.998 ± 0.014	0.994 ± 0.014	0.998 ± 0.011	1 ± 0.023	0.995 ± 0.0046	0.998 ± 0.01
OC[C@H]1O[C@@H](n2cnc3c(N[C@H]4CCC[C@@H]4O)ncnc32)[C@H](O)[C@@H]1O	1.017 ± 0.0058	1.01 ± 0.027	1.01 ± 0.01	1.01	0.993 ± 0.015	0.9927 ± 0.0095
COC1(C2=NCCN2)COc2ccccc2O1 (centres undefined)	0.9913 ± 0.0035	1 ± 0.018	1.01 ± 0.029	0.994 ± 0.017	0.9827 ± 0.0021	0.9817 ± 0.0067
N[C@@H](Cc1c[nH]c2ccccc12)C(=O)O [L-Tryptophan]	1.01	1.027 ± 0.0058	1.03 ± 0.032	1.033 ± 0.0058	0.999 ± 0.001	1.003 ± 0.0058
Nc1cc(=O)[nH]c(N)n1 [2,4-Diamino-6-hydroxypyrimidine]	1.007 ± 0.0058	1.01 ± 0.029	0.9987 ± 0.0023	0.994 ± 0.014	0.988 ± 0.0017	0.992 ± 0.005
O=C(/C=C/c1ccc(O)cc1)c1ccc(O)cc1O [Isoliquiritigenin]	0.997 ± 0.0044	1.06 ± 0.05	1 ± 0.01	1.06 ± 0.09	1.01	1.017 ± 0.0058
CS(=O)(=O)OCCCCOS(C)(=O)=O [Busulfan]	1.02 ± 0.02	1.01 ± 0.026	1.013 ± 0.0058	1.033 ± 0.0058	1.003 ± 0.0064	0.989 ± 0.014
CC[C@@H]1C(=O)OC[C@@H]1Cc1cncn1C [(+)-Pilocarpine hydrochloride]	1.01 ± 0.013	1.02 ± 0.018	1.01 ± 0.011	0.862 ± 0.28	1.003 ± 0.0058	1.02 ± 0.021
CC[C@@H]1C(=O)OC[C@@H]1Cc1cncn1C [Pilocarpine nitrate]	1.013 ± 0.0058	1.01 ± 0.025	0.985 ± 0.01	1.01 ± 0.044	1	1.02 ± 0.015
CN1CCc2c(c3ccccc3n2Cc2ccc(C(=O)NO)cc2)C1 [Tubastatin A]	0.984 ± 0.013	0.983 ± 0.026	0.983 ± 0.023	1.01 ± 0.023	0.991 ± 0.011	0.9927 ± 0.0063
CN1CCc2c(c3ccccc3n2Cc2ccc(C(=O)NO)cc2)C1 [Tubastatin A HCl]	0.9623 ± 0.0086	0.859 ± 0.016	0.967 ± 0.0035	0.913 ± 0.025	0.999 ± 0.01	0.9903 ± 0.0042
CN1C(=O)CC[C@H]1c1cccnc1 [(-)-Cotinine]	0.995 ± 0.018	1.02 ± 0.01	1 ± 0.011	1.01 ± 0.014	1.005 ± 0.0087	1.03 ± 0.044
Cc1c(CN2CCN(C(=O)[C@H](C)O)CC2)sc2c(N3CCOCC3)nc(-c3cnc(N)nc3)nc12	0.631 ± 0.017	0.433 ± 0.034	0.59 ± 0.02	0.399 ± 0.076	0.757 ± 0.035	0.552 ± 0.033
